Assay results taken from PubChem BioAssay AID651820 (National Center for Advancing Translational Sciences (NCATS), 2012).
Screen size: about 340,000 compounds; about 12,000 (3.5%) were called active. The shares of active, inactive and inconclusive entries below differ from those in the screen. Calls come from the whole dose curve; as a rule, active = well fitted inhibition curve with a large enough effect; inconclusive = small, poorly fitted or top-dose-only effect, or another doubt; inactive = no such curve, though single readings can be large or run the other way. No potency is given beside an inconclusive call; the fits are too rough.

Test: qHTS Assay for Inhibitors of Hepatitis C Virus (HCV)
Settings: Huh7.5.1 HCVcc-Cre (HCVcc is cell-culture hepatitis C virus) infection, luciferase reporter, 44 h; series mostly up to 41.8 µM
Summary of the method: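 Cells (1,000/well) were plated 4 h before compound, then infected with HCVcc-Cre virus (~0.5 moi). After 44 h further culture, infection was read as luciferase luminescence following a 15 min substrate incubation at room temperature.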
Potency is the fitted concentration of half-maximal effect; tags give direction and shape of the fitted curve.

SMILES | Potency
O=C(O)/C=C/c1ccc(S(=O)(=O)N2CCCCCC2)cc1 | inconclusive [inhibitor, single point]
CCN(Cc1nc2ccccc2c(=O)[nH]1)Cc1cc(=O)oc2cc(C)c(C)cc12 | inconclusive [inhibitor, single point]
CC(C)N=C1NN=C(c2ccc(Cl)c(Cl)c2)CS1 | inconclusive [inhibitor, partial curve]
COc1ccccc1C(=O)Nc1ccnn1C1CCN(Cc2cn(C)c3ccccc23)CC1 | inconclusive [inhibitor, single point]
Cc1ccc(N2CCN(c3ncccc3[N+](=O)[O-])CC2)c(C)c1 | inconclusive [inhibitor, single point]
CCCCOC(=O)c1ccc(NC(=O)COC(=O)c2ccc3ncsc3c2)cc1 | inconclusive [inhibitor, single point]
COc1ccc(CNC(=O)CN(c2ccc(C(C)C)cc2)S(=O)(=O)c2c(C)noc2C)cc1 | active: 10 µM
Cc1ccc(NC(=O)c2ccc3c(c2)N(CC(=O)N2CCCCC2)C(=O)C(C)(C)O3)cc1 | active: 5.62 µM
C/C=C(/C)C(=O)OC1c2c(ccc3ccc(=O)oc23)OC(C)(C)C1OC(C)=O (stereo not given) | inconclusive [inhibitor, single point]
O=C(NNC(=S)NCc1ccco1)c1cccs1 | inactive
CC(=O)N1CCc2cc(S(=O)(=O)NCCCN3CCN(Cc4ccccc4)CC3)ccc21 | inconclusive [inhibitor, partial curve]
Cc1noc(/C=C/c2ccco2)c1S(=O)(=O)N1CCC(C(=O)NCc2ccco2)CC1 | inconclusive [inhibitor, partial curve]
COc1ccc(NC(=O)NN2CCOCC2)cc1OC | inactive
O=C1CC2(CCCC2)Oc2ccccc21 | inactive
O=C(Oc1ccc2c3c(c(=O)oc2c1)CCC3)c1ccccc1[N+](=O)[O-] | inactive
CC(C)(C)c1nc(N2CCN(C(=O)c3ccco3)CC2)c2nnn(Cc3ccccc3Cl)c2n1 | inconclusive [inhibitor, single point]
CC(C)C[C@H]1CNC(=S)N1CC1CCN(CCCCc2ccccc2)CC1 | inconclusive [inhibitor, partial curve]
Cc1ccc(C2(COC(=O)C(C)C)CO2)c(OC(=O)C(C)C)c1 (stereo not given) | inactive
CCN(CC)CCN(C(=O)c1ccc(C(C)=O)cc1)c1nc2ccc(Cl)cc2s1 | inconclusive [inhibitor, partial curve]
O=C(O)CC(CNS(=O)(=O)c1ccccc1)c1ccccc1 (stereo not given) | inconclusive [inhibitor, single point]
COc1ccc(Nc2ccc([N+](=O)[O-])cn2)cc1 | inactive
COc1ccc(/C=C/C(=O)OCC(=O)Nc2ccc3c(c2)OCO3)cc1 | inactive
Cc1ccc2sc(N3CCN(CCNC(=O)c4ccco4)CC3)nc2c1C | inconclusive [inhibitor, single point]
O=C(CCc1c[nH]c2ccccc12)N1CCN(S(=O)(=O)c2ccc(F)cc2)CC1 | inconclusive [inhibitor, partial curve]

SMILES | Potency
CCCCCCN=C(C)c1c(O)n(CCCC)c(=O)[nH]c1=O | inconclusive [inhibitor, partial curve]
CCN(CC)c1ccc(NC(=O)c2ccccc2)cc1S(=O)(=O)Nc1ccccc1OC | inconclusive [inhibitor, full curve, poor fit]
Cc1nnc2n(c1=O)C(CS(=O)(=O)c1ccccc1)CS2 (stereo not given) | inactive
COc1ccc(NC(=O)CSc2n[nH]c(C)c2[N+](=O)[O-])cc1 | inactive
O=C(C=Cc1ccco1)c1ccc2ccccc2c1 | inactive
CCC(C)c1ccccc1N1CC(C(=O)Nc2ccc(S(=O)(=O)N3CCOCC3)cc2)CC1=O (stereo not given) | inactive
COc1ccc(C)cc1NC(=O)CN1CCN(C/C=C/c2ccccc2)CC1 | inconclusive [inhibitor, single point]
CSc1nc(Cl)cc(Nc2ccc(O)cc2)n1 | inconclusive [inhibitor, full curve]
CC(C)NCC(O)COc1cccc2ccccc12 (stereo not given) | inactive
C=CC[C@@H](CC(=O)N[C@H](CO)Cc1ccccc1)C(=O)N[C@@H](C)COC(=O)[C@@H](CC=C)CC(=O)OC(C)(C)C | inactive
O=C(CSc1nnc(SCc2ccccc2)s1)N/N=C/c1c(Cl)cccc1Cl | inactive
COc1ccccc1C(CNC(=O)CCNS(=O)(=O)c1ccc(Br)cc1)N1CCCC1 (stereo not given) | inconclusive [inhibitor, single point]
COc1ccc(OC)c(NC(=O)NCc2ccc(F)cc2)c1 | inconclusive [inhibitor, partial curve]
CC(=O)Nc1sc(N/N=C/c2ccccc2)nc1-c1ccc(C)cc1 | inconclusive [inhibitor, partial curve]
O=C(NC(Cc1ccccc1)C(=O)N1CCN(c2ccccc2O)CC1)c1ccccc1 (stereo not given) | inconclusive [inhibitor, single point]
O=C(CCN1CCN(CCO)CC1)Nc1ccc(OCc2ccccc2)cc1 | inconclusive [inhibitor, single point]
CSc1ccccc1NC(=O)CN(C)C(C)C(=O)NCc1ccc2c(c1)OCO2 (stereo not given) | inconclusive [inhibitor, single point]
CC(=O)Oc1ccc(Cl)cc1CN(C(C)=O)C1CCCCC1 | inconclusive [inhibitor, full curve, poor fit]
Cc1ccc(NC(=O)COC(=O)c2ccccc2Cl)cc1S(=O)(=O)N(C)C | inactive
Cc1cccc(-n2cnc3c(sc4nc(N5CCOCC5)c5c(c43)CCCC5)c2=O)c1 | active: 17.8 µM
CCN(CC)CCCn1c2c(c(SCC(=O)Nc3ccc(F)c(F)c3)nc1=O)CCC2 | inconclusive [inhibitor, partial curve]
O=C1OCCN1C(=O)[C@H]1[C@H](c2ccc([N+](=O)[O-])cc2)C(c2cccc(Cl)c2)=NN1c1ccc(Br)cc1 | inconclusive [inhibitor, single point]
Cc1ccc(N/N=C(\Cc2nc3ccccc3[nH]2)c2ccccc2)cc1 | inconclusive [inhibitor, full curve]
OCC1OC(n2cnc3c(=S)nc[nH]c32)CC1O (stereo not given) | inactive

SMILES | Potency
COC(=O)C1=C(C)NC(=O)CC1c1ccc(F)c(Br)c1 (stereo not given) | inconclusive [inhibitor, single point]
C(=N\n1cnnc1)/c1cccc(Oc2ccccc2)c1 | inconclusive [inhibitor, single point]
CN(CC(=O)Nc1cccc(Cl)c1)S(=O)(=O)c1ccc2c(c1)n(C)c(=O)c(=O)n2C | inconclusive [inhibitor, single point]
Cc1nc(SCC(=O)N2c3ccccc3NC(=O)CC2C)c2c(C)c(C)sc2n1 (stereo not given) | inactive
CCOC(=O)c1c(NC(=O)COC(=O)c2ccc(O)cc2)sc(C(=O)N(C)C)c1C | inconclusive [inhibitor, single point]
CN1CCN(c2ccc([N+](=O)[O-])cc2NC(=O)c2ccccc2)CC1 | inconclusive [inhibitor, full curve, poor fit]
CN(C(=O)COC(=O)c1cc(S(=O)(=O)N2CCCCC2)ccc1Cl)c1ccccc1 | inactive
Brc1ccc(NCc2cccc3ccccc23)nc1 | inactive
CCCc1nc2ccccc2c(C(=O)OCC(=O)Nc2ccc(S(=O)(=O)N3CCOCC3)cc2)c1CC | active: 8.91 µM
Cn1ncc2c(Nc3ccc4ccccc4c3)ncnc21 | inconclusive [inhibitor, partial curve]
CCn1c(SC(C)C(=O)NCC2CCCO2)nc2scc(-c3ccccc3)c2c1=O (stereo not given) | inconclusive [inhibitor, single point]
Cc1ccc(N(Cc2cc(=O)[nH]c3ccccc23)C(=O)CCl)cc1 | active: 11.2 µM
COc1cc2c(=O)n(Cc3ccccc3)c(=O)n(CC(=O)NCc3ccco3)c2cc1OC | inconclusive [inhibitor, partial curve, poor fit]
COc1c(C(CC(C)C)OC(C)=O)ccc2c1C(=O)OCc1cc(C)cc(O)c1O2 (stereo not given) | active: 2.51 µM
CC(C)c1ccc(/C=N/NC(=O)c2nnn(-c3nonc3N)c2CSC2=NCCS2)cc1 | active: 11.2 µM
CCOc1ccc(CNC(=O)CCCc2cn(C)c3ccccc23)cc1OC | inconclusive [inhibitor, partial curve]
COC(=O)[C@H](Cc1ccccc1)NC(=O)c1cc(COc2c(F)cccc2F)on1 | inactive
CCOc1ncccc1C(=O)Nc1cc(S(=O)(=O)N(CC)CC)ccc1N1CCOCC1 | inconclusive [inhibitor, single point]
Cc1csc(NC(=O)CCN2C(=O)c3ccccc3S2(=O)=O)n1 | inactive
CC(C)(C)NC(=O)C(c1ccncc1)N(Cc1cccs1)C(=O)Cn1nnc(-c2cccs2)n1 (stereo not given) | inconclusive [inhibitor, single point]
C/C(CC(=O)Nc1ccc(OCc2ccccc2)cc1)=N\NC(=O)C(=O)Nc1ccccc1C | inconclusive [inhibitor, single point]
CCC(=O)NNc1nc2c(C)cc(C)cc2s1 | inactive
